In the supplement of paper PMC5919970:
Counter-ions that a name gives are not always drawn. The full ranking holds about 2,000 compounds; the median of “fractional viability relative to vehicle” is about 0.91, and the lowest 2% start at about 0.045. Some of the results follow.

Test system: TYKNU
Assay: fractional viability relative to vehicle; TYKNU is a high-grade serous ovarian cancer line; higher = less growth inhibition
Conditions: 72 h
Method in brief: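 TYKNU control cells or lentiCRISPRv2 knockout derivatives were plated at 500 cells per well in duplicate into drug-stamped 384-well plates holding a ~2100-compound library at 2 or 10 μM. Culture was in RPMI 1640 with 10% FBS at 37 °C in 5% CO2, with 72 h of drug treatment. Viability was measured by Cell Titer Glo luminescence, and the averaged duplicate treatment wells were normalised to duplicate control wells at the same plate position.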

[1] = 2uM, genotype: DNM1L knockout (sgDNM1L #1)
[2] = 2uM, genotype: sgCTRLA1 (non-targeting control)
[3] = 10uM, genotype: DNM1L knockout (sgDNM1L #1)
[4] = 10uM, genotype: sgCTRLA1 (non-targeting control)

Row | Structure (SMILES) | fractional viability [1] | fractional viability [2] | fractional viability [3] | fractional viability [4]
1 | O=C(O)c1cccnc1Nc1cccc(C(F)(F)F)c1 [Niflumic acid] | 1.09 | 1.18 | 0.803 | 1.14
2 | CC1CC(OC(=O)C(O)c2ccccc2)CC(C)(C)C1 (stereo not given) [Cyclandelate] | 1.05 | 1.01 | 0.64 | 0.953
3 | CC(CCc1ccccc1)NCC(O)c1ccc(O)c(C(N)=O)c1 (stereo not given) [Labetalol HCl] | 0.755 | 1.15 | 0.743 | 1.02
4 | CCOC(=O)[C@H](CCc1ccccc1)N[C@@H](C)C(=O)N1Cc2ccccc2C[C@H]1C(=O)O [Quinapril HCl] | 0.996 | 1.11 | 0.859 | 1.02
5 | CC1(C)S[C@@H]2[C@H](NC(=O)[C@H](NC(=O)N3CCNC3=O)c3ccccc3)C(=O)N2[C@H]1C(=O)O [Azlocillin sodium salt] | 1.09 | 1.05 | 0.949 | 1.09
6 | O=C1[C@H](Cc2ccc(O)cc2)N2C(=O)CCN(C(=O)NCc3ccccc3)[C@H]2CN1Cc1cccc2ccccc12 | 0.579 | 0.861 | 0.212 | 0.19
7 | CCn1c2ccccc2c2cc(Nc3ccnc(NCCCN4CCOCC4)n3)ccc21 | 0.978 | 0.995 | 0.0528 | 0.0794
8 | CC(C)OC(=O)[C@H](C)N[P@](=O)(OC[C@H]1O[C@@H](n2ccc(=O)[nH]c2=O)[C@](C)(F)[C@@H]1O)Oc1ccccc1 [Sofosbuvir (PSI-7977, GS-7977)] | 1.27 | 1.14 | 0.85 | 1.04
9 | Nc1nc2c(ncn2[C@@H]2O[C@H](CO)[C@@H](O)[C@H]2O)c(=O)[nH]1 [Guanosine] | 0.755 | 0.929 | 0.7 | 0.845
10 | Nc1[nH]nc2nnc(-c3c(-c4ccccc4)nn4ccccc34)cc12 | 0.851 | 1.01 | 1.04 | 0.887
11 | COc1cc(N2CCC(N)CC2)ccc1Nc1ncc(Cl)c(-c2c[nH]c3ccccc23)n1 | 0.359 | 0.386 | 0.0459 | 0.0363
12 | CCOC(=O)n1ccn(C)c1=S [Carbimazole] | 0.929 | 1.04 | 0.844 | 0.994
13 | Cc1cc(NS(=O)(=O)c2ccc(N)cc2)no1 [Sulfamethoxazole] | 1.02 | 1.22 | 0.884 | 1.1
14 | CC(C)(C)C(=O)C(Oc1ccc(Cl)cc1)n1ccnc1 (stereo not given) [Climbazole] | 0.805 | 1.06 | 0.641 | 0.924
15 | CC(C)N(CCCNC(=O)Nc1ccc(C(C)(C)C)cc1)C[C@H]1O[C@@H](n2cc(Br)c3c(N)ncnc32)[C@H](O)[C@@H]1O | 0.87 | 1.15 | 0.732 | 1.04
16 | CC1(C)S[C@@H]2[C@H](NC(=O)C(C(=O)O)c3ccccc3)C(=O)N2[C@H]1C(=O)O (stereo not given in full) [Carbenicillin disodium] | 1.15 | 1.17 | 0.85 | 1.07
17 | O=C(CCCCCN1C(=O)c2cccc3cccc(c23)C1=O)NO [Scriptaid] | 0.411 | 0.51 | 0.108 | 0.109
18 | C=C[C@@]1(C)CC(=O)[C@]2(O)[C@@]3(C)[C@@H](O)CCC(C)(C)[C@@H]3[C@H](O)[C@H](OC(C)=O)[C@@]2(C)O1 [Forskolin] | 0.984 | 0.895 | 0.893 | 1.07

Row | Structure (SMILES) | fractional viability [1] | fractional viability [2] | fractional viability [3] | fractional viability [4]
19 | Cc1cc(OCCCS(C)(=O)=O)cc(C)c1-c1cccc(COc2ccc3c(c2)OC[C@H]3CC(=O)O)c1 | 0.923 | 1.2 | 0.893 | 1.12
20 | CCN(CC)C(=S)SSC(=S)N(CC)CC [Disulfiram] | 0.456 | 0.291 | 0.0708 | 0.0241
21 | COc1cc2/c(=N/c3ccc(Br)cc3F)nc[nH]c2cc1OCC1CCN(C)CC1 [Vandetanib (ZD6474)] | 1.07 | 1.05 | 0.264 | 0.266
22 | O=c1cc(-c2ccccc2)oc2cc(O)cc(O)c12 [Chrysin] | 0.977 | 1.08 | 0.978 | 1.18
23 | O=C(CCCCCCC(=O)Nc1ccccc1)NO [Vorinostat (SAHA, MK0683)] | 0.506 | 0.615 | 0.132 | 0.18
24 | CC[C@H]1OC(=O)C[C@@H](O)[C@H](C)[C@@H](O[C@@H]2O[C@H](C)[C@@H](O[C@H]3C[C@@](C)(O)[C@@H](O)[C@H](C)O3)[C@H](N(C)C)[C@H]2O)[C@@H](CC=O)C[C@@H](C)C(=O)/C=C/C(C)=C/[C@@H]1CO[C@@H]1O[C@H](C)[C@@H](O)[C@@H](OC)[C@H]1OC [Tylosin tartrate] | 1.74 | 1.33 | 1.33 | 1.24
25 | O=C(/C=C/c1ccc(O)c(O)c1)c1ccc(O)cc1O [Butein] | 0.836 | 0.916 | 0.609 | 0.483
26 | Cc1ccc(NC(=O)c2cccc(N(C)C)c2)cc1NC(=O)c1ccc(O)cc1 | 1.12 | 1.07 | 0.938 | 0.98
27 | O=C1NCCc2[nH]c(-c3ccncc3)cc21 | 0.853 | 0.85 | 0.286 | 0.305
28 | COc1ccc(S(=O)(=O)Nc2cccnc2Nc2ccc(O)cc2)cc1 | 0.739 | 0.875 | 0.195 | 0.162
29 | CCNC(=O)CCC/C=C\C[C@@H]1[C@@H](/C=C/[C@@H](O)CCc2ccccc2)[C@H](O)C[C@@H]1O [Bimatoprost] | 0.998 | 1.09 | 0.99 | 1.06
30 | COC(=O)C1=C(C)NC(C)=C(C(=O)OC2CCCN(Cc3ccccc3)C2)C1c1cccc([N+](=O)[O-])c1 (stereo not given) [Benidipine HCl] | 0.974 | 0.954 | 0.606 | 0.883
31 | CC1(C)O[C@@H]2C[C@H]3[C@@H]4CCC5=CC(=O)C=C[C@]5(C)[C@H]4[C@@H](O)C[C@]3(C)[C@]2(C(=O)CO)O1 [Desonide] | 1.02 | 1.19 | 0.987 | 1.16
32 | O=C(O)c1ccc2c(c1)nc(Nc1cccc(Cl)c1)c1ccncc12 [CX-4945 (Silmitasertib)] | 0.969 | 0.999 | 0.275 | 0.324
33 | NCCCCCNCC12CC3CC(CC(C3)C1)C2 [IEM 1754 dihydrobroMide] | 0.967 | 0.972 | 0.91 | 0.898
34 | CC1(C)CCC[C@]2(C)[C@H]3CC(=O)O[C@]3(C)CC[C@@H]12 [Sclareolide] | 0.87 | 1.08 | 0.822 | 1.02
35 | COc1c(N2C[C@@H]3CCCN[C@@H]3C2)c(F)cc2c(=O)c(C(=O)O)cn(C3CC3)c12 [Moxifloxacin HCl] | 0.939 | 1.18 | 1.09 | 1.21
